As a reminder, the Kd is a measure of binding affinity in units of concentration.

Assay [1] deals with Staphylococcus aureus cells. Put plainly: Fluorescence microscopy of cells incubated with 2E7 and FITC anti-mouse IgG. As to conditions: 2E7 then FITC anti-mouse IgG Ab. It is filed as cell-based. On the procedure:
(§1) Power Fit equation y=a*(x−b)^c using CurveExpert Basic. The standard curve was used to determine the peptidoglycan to concentration in a sample. […] Both bacteria were grown to OD600=1.5. Each culture was divided into two, and one treated with 40 μg/ml amoxicillin (Atex) and the other untreated. Aliquots were collected at the indicated times and the amount of MPs in the supernatant was determined by competitive ELISA. […] After removing unbound antibodies by PBS washes, the cells were incubated with a FITC-labeled anti-mouse IgG Ab before fluorescence microscopic examination.
(§2) Both Staphylococcus aureus and Escherichia coli cells were first incubated with 2E7 and then with an anti-mouse IgG Ab conjugated with FITC.

For a further assay, the system named is Escherichia coli cells. Described as above. The class given is cell-based. As to conditions: 2E7 then FITC anti-mouse IgG Ab. On the procedure:
as §1, §2

The test system of the next assay is live Escherichia coli. Put plainly: Aggregation of live bacterial cells incubated with 2E7. As to conditions: data not shown. It is filed as cell-based. The protocol: as §2
Assay [2] relates to live Staphylococcus aureus. The description is as above. The class given is cell-based. As to conditions: data not shown. On the procedure: as §2
Assay [3] in a line: ELISA binding curve of 2E7 on MDP-OVA coated wells (Kd determination). The protocol:
After washes to remove unbound Abs, an anti-mouse-IgG Ab coupled with horseradish peroxidase (HSP) was added. After incubation, unbound secondary Ab was removed by washes and a chromogenic substrate of HSP was added. After reaction, the color intensity in each well was measured using a microtiter plate reader at 492 nm. […] Coefficient data: a=2.8768241, b=2.8055033, c=212.44541, and d=0.8659833. Y50=1.45, X=0.00131 μg/ml.
A mAb (2E7) was obtained from immunization of mice with N-acetylmuramyl-L-alanyl-D-isoglutamine. […] An IgG1 mAb that specifically recognizes the glutaraldehyde linker used to couple MDP to HSA was also obtained in the screening of hybridoma clones.
(In general: An ELISA detects its analyte on a solid surface through an enzyme-linked reagent.)

B1: 2E7: mouse monoclonal IgG1 against muramyl dipeptides; heavy chain SEQ ID NO: 3, light chain SEQ ID NO: 4; hybridoma Wy-Hyb-2E7, ATCC PTA-13256 (antibody)
heavy: MLVESGGGLVQPGGSMKLSCIVSGFTFSYYWMSWVRQSPEKGFEWVAEIRLKSENYATNYTESVKGKFTISRDDSKSRLYLQMNSLGAEDTGIYYCLTGYAWFAYWGQGTLVTVSAAKTTPPSVYPLAPGSAAQTNSMVTLGCLVKGYFPEPVTVTWNSGSLSSGVHTFPAVLQSDLYTLSSSVTVPSSTWPSETVTCNVAHPASSTK
light: DVQMIQSPKRLIYLVSKLDSGVPDRFTGSGSGTDFTLKISRVEAEDLGVYYCVQHTHFPTFGGGTKLEIKRADAAPTVSIFPPSSEQLTSGGASVVCFLNNFYPKDINVKWKIDGSERQNGVLNSWTDQDSKDSTYSMSSTLTLTKDEYERHNSYTCEATHKTSTSPIVKSFNRNEC
modifications: Heavy chain; Light chain
notes: mouse monoclonal IgG1 against muramyl dipeptides; hybridoma Wy-Hyb-2E7, ATCC PTA-13256
B1: the staining of cells entry is “strong staining” in assay [1] and “weak staining” with Escherichia coli cells. In addition, the cell aggregation result (with live Escherichia coli; in assay [2]) was “significant cell aggregation” throughout. Further, in assay [3], the “affinity of 2E7 to MPs (in words)” value is listed as “picomolar affinity”. Besides, the “2E7 concentration X at Y50=1.45 of the binding curve” value in assay [3] (MDP-OVA coated wells, OD492, Weibull model fit) amounted to 0.00131 µg/mL. Further, the Kd in assay [3] (read-out: Kd of 2E7 for N-acetylmuramyl-L-alanyl-D-isoglutamine, MDP-OVA coated 96-well plate, Weibull model fit of OD492, IgG MW=150) turned out to be 8.7 pM.
